Reference: a collection of fitness landscapes (doi:10.1016/j.celrep.2020.107928)
In all, about 81,000 sequences were measured (“one-hybrid fitness for binding parS DNA”: median about -0.17, highest 2% from about 0.51 on). The list shows a part of the results.

B1: Caulobacter ParB omega fusion; a variant is named by its letters at X, in order, B8GW30 (parent)
chain: MESVVVGEPGMSEGRRGLGRGLSALLGEVDAAPAQAPGEQLGGSREAPIEILQRNPDQPRRTFREEDLEDLSNSIREKGVLQPILVRPSPDTAGEYQIVAGERAWRAAQRAGLKTVPIMVRELDDLAVLEIGIIENVQRADLNVLEEALSYKVLMEKFERTQENIAQTIGKSXSHVANXMRLLXLPDEVQSYLVSGELTAXHARAIAAAADPVALAKQIIEGGLSVRETEALARKAPNLSAGKSKGGRPPRVKDTDTQALESDLSSVLGLDVSIDHRGSTGTLTITYATLEQLDDLCNRLTRGI

Variants of: B1
Experiment: one-hybrid fitness for binding parS DNA (scaled: cognate 1, non-cognate 0); higher = stronger binding
Conditions: with parS DNA site
In short: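 The reporter was HIS3, with the binding site 19 bp from the promoter, in E. coli USO used for bacterial one-hybrid selection of Caulobacter ParB libraries with four specificity codons randomised. Growth was on M9 lacking histidine, with 0.1 mM IPTG and 5 mM 3-AT, for 48 hours at 37°C. Illumina sequencing covered plasmids before and after selection; three replicate libraries were pooled and variants with under 10 reads dropped. A fitness score is the log change in variant-to-wild-type read ratio, rescaled to the cognate and non-cognate references.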

Row | Variant | one-hybrid fitness for binding parS DNA
1 | YVWT | ≤ 0.2
2 | LTHP | ≤ 0.2
3 | QRIR | ≤ 0.2
4 | MCNA | ≤ 0.2
5 | IPTH | ≤ 0.2
6 | TLPW | ≤ 0.2
7 | DTME | ≤ 0.2
8 | YPYR | ≤ 0.2
9 | TYFS | ≤ 0.2
10 | RRFH | ≤ 0.2
11 | MLES | ≤ 0.2
12 | CTAG | ≤ 0.2
13 | DHMS | ≤ 0.2
14 | YPVP | ≤ 0.2
15 | VTLQ | ≤ 0.2
16 | QLVL | ≤ 0.2
17 | SSVT | ≤ 0.2
18 | NMES | ≤ 0.2
19 | YSLG | ≤ 0.2
20 | AMCA | ≤ 0.2
21 | PMSC | ≤ 0.2
22 | FNQT | ≤ 0.2
23 | WTHG | ≤ 0.2
24 | PITR | ≤ 0.2
25 | KPSN | ≤ 0.2

Row | Variant | one-hybrid fitness for binding parS DNA
26 | TSGC | ≤ 0.2
27 | LKAI | ≤ 0.2
28 | IDNT | ≤ 0.2
29 | LKPN | ≤ 0.2
30 | PPVY | ≤ 0.2
31 | MYTW | ≤ 0.2
32 | GMAR | ≤ 0.2
33 | QQDI | ≤ 0.2
34 | SQSD | ≤ 0.2
35 | QFRC | ≤ 0.2
36 | DQLG | ≤ 0.2
37 | GSSL | ≤ 0.2
38 | CPVW | ≤ 0.2
39 | NAQW | ≤ 0.2
40 | GVPA | ≤ 0.2
41 | WVAN | ≤ 0.2
42 | PKIG | ≤ 0.2
43 | PSPD | ≤ 0.2
44 | NCGT | ≤ 0.2
45 | CGAM | ≤ 0.2
46 | RVEN | 0.294
47 | YCPG | ≤ 0.2
48 | CKRG | ≤ 0.2
49 | RLIS | 1
50 | LRKQ | ≤ 0.2

Row | Variant | one-hybrid fitness for binding parS DNA
51 | MHMC | ≤ 0.2
52 | YIQS | ≤ 0.2
53 | LYRN | ≤ 0.2
54 | YSQA | ≤ 0.2
55 | DGRN | ≤ 0.2
56 | RSGH | 0.208
57 | PTAV | ≤ 0.2
58 | YSSW | ≤ 0.2
59 | IKSC | ≤ 0.2
60 | VRVQ | ≤ 0.2
61 | EPFM | ≤ 0.2
62 | YPVY | ≤ 0.2
63 | YCDA | ≤ 0.2
64 | GLND | ≤ 0.2
65 | GHQS | ≤ 0.2
66 | HKNC | ≤ 0.2
67 | KYME | ≤ 0.2
68 | KAGE | ≤ 0.2
69 | HKRC | ≤ 0.2
70 | QHKH | ≤ 0.2
71 | MDYS | ≤ 0.2
72 | LLGL | ≤ 0.2
73 | SDVS | ≤ 0.2
74 | APWL | ≤ 0.2
75 | GSFT | ≤ 0.2

Row | Variant | one-hybrid fitness for binding parS DNA
76 | PGQC | ≤ 0.2
77 | INCR | ≤ 0.2
78 | VAML | ≤ 0.2
79 | ISMT | ≤ 0.2
80 | RCHY | 0.46
81 | MPVT | ≤ 0.2
82 | HVIK | ≤ 0.2
83 | PMYC | ≤ 0.2
84 | KWPC | ≤ 0.2
85 | MGSM | ≤ 0.2
86 | LHLE | ≤ 0.2
87 | CAES | ≤ 0.2
88 | YSPF | ≤ 0.2
89 | GHSV | ≤ 0.2
90 | PGKA | ≤ 0.2
91 | IMHV | ≤ 0.2
92 | VHLI | ≤ 0.2
93 | RTCA | 0.572
94 | PGST | ≤ 0.2
95 | HWHE | ≤ 0.2
96 | GKTC | ≤ 0.2
97 | RSGL | ≤ 0.2
98 | QRYY | ≤ 0.2
99 | PNVA | ≤ 0.2
100 | LKQL | ≤ 0.2

Row | Variant | one-hybrid fitness for binding parS DNA
101 | NISV | ≤ 0.2
102 | SQNS | ≤ 0.2
103 | YIHA | ≤ 0.2
104 | YKAL | ≤ 0.2
105 | GPRG | ≤ 0.2
106 | KFTC | ≤ 0.2
107 | RGGF | ≤ 0.2
108 | QKWG | ≤ 0.2
109 | RVTV | ≤ 0.2
110 | CHCC | ≤ 0.2
111 | FRFV | ≤ 0.2
112 | YTPV | ≤ 0.2
113 | PMHE | ≤ 0.2
114 | NSDS | ≤ 0.2
115 | RFWR | ≤ 0.2
116 | TRCI | ≤ 0.2
117 | AFFS | ≤ 0.2
118 | QKTH | ≤ 0.2
119 | LMWR | ≤ 0.2
120 | SKPL | ≤ 0.2
121 | WDMG | ≤ 0.2
122 | CCNL | ≤ 0.2
123 | YYSS | ≤ 0.2
124 | EKQF | ≤ 0.2
125 | AYPN | ≤ 0.2

Row | Variant | one-hybrid fitness for binding parS DNA
126 | SIMR | ≤ 0.2
127 | RCIF | 0.245
128 | QVQI | ≤ 0.2
129 | ATYV | ≤ 0.2
130 | LIYI | ≤ 0.2
131 | TQTK | ≤ 0.2
132 | KKGG | ≤ 0.2
133 | QPEF | ≤ 0.2
134 | FNSG | ≤ 0.2
135 | RRHC | 0.616
136 | NAEG | ≤ 0.2
137 | KDTR | ≤ 0.2
138 | RRWN | 0.323
139 | SNQR | ≤ 0.2
140 | NNRG | ≤ 0.2
141 | NLVS | ≤ 0.2
142 | WLMG | ≤ 0.2
143 | FAGS | ≤ 0.2
144 | APQF | ≤ 0.2
145 | TAYY | ≤ 0.2
146 | DGGV | ≤ 0.2
147 | DVMT | ≤ 0.2
148 | HHAT | ≤ 0.2
149 | SGKW | ≤ 0.2
150 | QVTV | ≤ 0.2

Row | Variant | one-hybrid fitness for binding parS DNA
151 | MKHV | ≤ 0.2
152 | LAVP | ≤ 0.2
153 | HILF | ≤ 0.2
154 | PKLA | ≤ 0.2
155 | KTHT | ≤ 0.2
156 | IQQG | ≤ 0.2
157 | HGSL | ≤ 0.2
158 | WPDR | ≤ 0.2
159 | HQNG | ≤ 0.2
160 | SDRY | ≤ 0.2
161 | QKLE | ≤ 0.2
162 | AIAH | ≤ 0.2
163 | APEF | ≤ 0.2
164 | QLQH | ≤ 0.2
165 | GCTK | ≤ 0.2
166 | CCAY | ≤ 0.2
167 | SRPW | ≤ 0.2
168 | VNPP | ≤ 0.2
169 | DYMS | ≤ 0.2
170 | WWEG | ≤ 0.2
171 | THSR | ≤ 0.2
172 | ERPF | ≤ 0.2
173 | PMML | ≤ 0.2
174 | EACF | ≤ 0.2
175 | PLPV | ≤ 0.2

Row | Variant | one-hybrid fitness for binding parS DNA
176 | KRIR | ≤ 0.2
177 | HAAY | ≤ 0.2
178 | DEAM | ≤ 0.2
179 | PPWV | ≤ 0.2
180 | QNRN | ≤ 0.2
181 | SYRC | ≤ 0.2
182 | MHNS | ≤ 0.2
183 | KMMR | ≤ 0.2
184 | CFTV | ≤ 0.2
185 | WPDC | ≤ 0.2
186 | KPKV | ≤ 0.2
187 | PIDC | ≤ 0.2
188 | PRCS | ≤ 0.2
189 | TAHC | ≤ 0.2
190 | KTKN | ≤ 0.2
191 | MNTS | ≤ 0.2
192 | PNGS | ≤ 0.2
193 | TSNG | ≤ 0.2
194 | DIVD | ≤ 0.2
195 | TSQE | ≤ 0.2
